# PubChem BioAssay AID485297 (National Center for Advancing Translational Sciences (NCATS), 2010)
# Screen size: about 320,000 compounds; about 9,100 (2.8%) were called active. Inconclusive results, whose numbers are uncertain, are shown with a selection of clear calls. The call rests on the fitted dose curve; in most records, active means well fitted activation curve with a large enough effect; inconclusive means small, poorly fitted or top-dose-only effect; inactive means no such curve, though single readings can be large or run the other way. No potency is given beside an inconclusive call; the fits are too rough.
# Test: qHTS Assay for Rab9 Promoter Activators; further: nearly all actives have a fitted effect of over 60% in size; on activation, negative = inhibition: % of control where 0% means no effect
# Conditions: Huh7 Rab9 promoter-luciferase reporter, luminescence, 24 h; series mostly up to 9.22 µM; activation, negative = inhibition: at the top concentration
# Method in brief: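 Cells were plated at 1500 per well in reduced-serum medium with 10% FBS and left 2 h. Compound in DMSO was then added for 24 h at 37 °C. Reporter signal was read by luminescence after 10 min with luciferase detection reagent.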
# Potency means the concentration at half of the fitted maximal effect; tags describe the fitted curve by direction and shape.
Compound,Potency,"activation, negative = inhibition"
O=C(Nc1ccccc1C(=O)N/N=C/c1ccncc1)c1ccccc1,"inconclusive [activator, single point]",
O=c1[nH]cnc2scc(C3COc4ccccc4O3)c12 (stereo not drawn),,inactive: 17.1%
O=C(N/N=C/c1cccs1)c1n[nH]c2c1CCC2,"inconclusive [activator, partial curve]",
O=c1oc2cc(O)ccc2cc1-c1ccc(F)cc1,"inconclusive [activator, single point]",
O=C(Nc1cccnc1)c1sc(Nc2ccccc2F)nc1-c1ccccc1,"inconclusive [activator, single point]",
Cc1ccc(C(=O)Nc2cccc(C(=O)O)c2)cc1S(=O)(=O)N1CCOCC1,active: 2.24 µM,
Cc1csc(=O)n1CC(=O)OCC(=O)Nc1ccc(F)c(F)c1,,inactive: 0.498%
Cc1ccc2c(c1)[nH]c1c(=O)n(Cc3ccco3)cnc12,"inconclusive [activator, partial curve]",
Cc1nc(-c2ccc3c(c2)CCC(=O)N3)cs1,"inconclusive [activator, single point]",
CNS(=O)(=O)c1cc(-c2nnc(Nc3ccc(NC(C)=O)cc3)c3ccccc23)ccc1C,,inactive: 3.79%
Cn1cc([N+](=O)[O-])c(C(=O)Nc2ccc(C3CCCCC3)cc2)n1,"inconclusive [activator, partial curve]",
CCOc1cc(/C=N/Nc2cccc(C(=O)O)c2)ccc1OC(=O)c1ccccc1,active: 0.1 µM,
Cc1c(Cl)cccc1NC(=O)CCNC(=O)N1CC(=O)Nc2ccccc21,,inactive: 5.91%
Cc1cc(NC(=O)c2ccco2)ccc1-n1cnnn1,"inconclusive [activator, single point]",
CCc1nnc(NC(=S)Nc2ccccc2)s1,"inconclusive [activator, partial curve]",
O=C(NNC(=S)Nc1ccc(Cl)cc1)c1cccs1,"inconclusive [activator, partial curve]",
O=C(N/N=C/c1cc([N+](=O)[O-])ccc1O)c1ccc(COc2ccc3c(c2)CCC3)o1,"inconclusive [activator, partial curve]",
COc1cccc(-c2nnc(-c3ccc(C(F)(F)F)cc3)o2)c1,"inconclusive [activator, single point]",
CCc1ccc2nc(N)sc2c1,active: 3.55 µM,
O=C(Nc1cc(S(=O)(=O)N2CCCCC2)ccc1Cl)c1ccccc1NS(=O)(=O)c1ccc(F)cc1,,inactive: -23.8%
O=C(Nc1nc2ccsc2c(=O)s1)c1ccc(F)cc1Cl,active: 0.562 µM,
Oc1ccccc1C1NN=C(c2ccccc2)S1 (stereo not drawn),"inconclusive [activator, partial curve]",
CCCCOc1ccc(CSc2n[nH]c(C)n2)cc1,"inconclusive [activator, single point]",
CCOC(=O)c1c(N)sc(C(=O)Nc2ccccc2F)c1C,active: 0.398 µM,

Compound,Potency,"activation, negative = inhibition"
COc1ccc(CN(C)C(=O)c2[nH]c(C)c(C(C)=O)c2C)c(OC)c1OC,,inactive: 1.13%
Cc1ccc(NC(=S)c2nc3ccccc3[nH]2)c(C)c1,active: 3.55 µM,
O=C(CSc1nc2ccccc2o1)Nc1ccc(N2CCOCC2)c(Cl)c1,"inconclusive [activator, full curve]",
CCCCN(C)C(=O)c1cc2cc3ccc(OC)cc3nc2s1,active: 0.447 µM,
CC1CCC(NC(=O)CNC(=O)c2ccc3ccccc3c2)CC1 (stereo not drawn),"inconclusive [activator, single point]",
CCCCC(=O)Nc1ccc(NC(=O)c2ccco2)cn1,"inconclusive [activator, single point]",
C#CCSc1nnc(-c2ccc([N+](=O)[O-])cc2)o1,active: 3.16 µM,
O=S(=O)(c1ccc(F)cc1)n1ccc(-c2cnc(-c3ccccc3)s2)n1,"inconclusive [activator, partial curve]",
O=S(=O)(/N=C(/Nc1nc2ccccc2s1)c1ccccc1)c1ccc(F)cc1,"inconclusive [activator, single point]",
O=C(NC1=NCCS1)C1COc2ccccc2O1 (stereo not drawn),"inconclusive [activator, partial curve, poor fit]",
O=c1oc(-c2cc3ccccc3o2)nc2sc3c(c12)CCCC3,"inconclusive [activator, partial curve]",
COc1ccccc1CCNC(=O)c1nc(-c2cccs2)no1,"inconclusive [activator, single point]",
O=C(N/N=C/C(Cl)=C\c1ccccc1)c1cccs1,active: 2 µM,
CN1CCc2c(sc3ncn4nc(-c5ccccc5O)nc4c23)C1,,inactive: 2.73%
CCCCCCOc1ccc(OCC(O)CN2C(=O)NC(C)(C)C2=O)cc1 (stereo not drawn),"inconclusive [activator, partial curve]",
O=C1NCCC/C1=N/Nc1cc(F)ccc1F,"inconclusive [activator, partial curve]",
O=C(NCc1cccnc1)C(=O)Nc1nc(-c2ccccc2)cs1,"inconclusive [activator, single point]",
CN=C1S/C(=C\c2ccc(N3CCCC3)c(F)c2)C(=O)N1C,"inconclusive [activator, partial curve]",
Cc1cc(C(=O)COC(=O)c2cccc(O)c2)c(C)n1C1CC1,"inconclusive [activator, partial curve]",
O=C(Cn1nnc(-c2ccc(OCc3ccccc3F)cc2)n1)N1CCOCC1,"inconclusive [activator, single point]",
CCCCNS(=O)(=O)c1ccc2nc(SCC(=O)Nc3sccc3C#N)[nH]c2c1,,inactive: -0.0101%
Cc1cccc(OCC(=O)NNc2c3ccccc3nc3ccccc23)c1,,inactive: -22.3%
O=C(Nc1ccc(SC(F)F)cc1)c1ccc2c(=O)n3c(nc2c1)CCC3,"inconclusive [activator, single point]",
Cc1ccsc1/C=N/N1CCN(c2ccccc2)CC1,"inconclusive [activator, single point]",
